From US20150023967A1 (published 2015) come the findings set out here.

Assay [1] concerns the target BCMA 102 x CD3. Kind of assay: SPR (Biacore).
The target in assay [2] is BCMA 101 x CD3. In words: SPR (Biacore). Background: SPR reads the build-up and loss of mass on a sensor chip optically.

B1: Macaque BCMA (other)
chain (part 1 of 2): [… about 60 residues …]NASGGGGSEAHKSEIAHRYNDLGEQHFKGLVLIAFSQYLQKCSYDEHAKLVQEVTDFAKTCVADESAANCDKSLHTLFGDKLCAIPNLRENYGELADCCTKQEPERNECFLQHKDDNPSLPPFERPEAEAMCTSFKENPTTFMGHYLHEVARRHPYFYAPELLYYAEQYNEILTQCCAEADKESCLTPKLDGVKEKALVSSVRQRMKCSSMQKFGERAFKAWAVARLSQTFPNADFAEITKLATDLTKVNKECCHGDLLECADDRAELAKYMCENQATISSKLQTCCDKPLLKKAHCLSEVEHDTMPADLPAIAADFVEDQEVCKNYAEAKDVFLGTFLYEYSRRHPDYSVSLLLRLAKKYEATLEKCCAEANPPACYGTVLAEFQPLVEEPKNLVKTNCDLYEKLGEYGFQNAILVRYTQKAPQVSTPTLVEAARNLGRVGTKCCTLPEDQRLPCVEDYLSAILNRVCLLHEKTPVSEHVTKCCSGSLVERRPCFSALTVDETYVPKEFKAETFTFHSDICTLPEKEKQIKKQTALAELVKHKPKATAEQLKTVMDDFAQFLDTCCKAADKDTCFSTEGPNLVTRCKDALA
chain (part 2 of 2): SGHHGGHHGGHH
B1: the Kd in assay [1] amounted to 0.3 nM; in assay [2], 0.8 nM.

Broadly, the Kd is the constant that tells how readily two partners part at equilibrium.
